Patent US12551573B2, “Compositions and methods for the targeting of PCSK9” (Scribe Therapeutics Inc., priority 2022, dated 2026)

B1: DOMAIN_8790 (protein)
chain: NEMVTFKDVAVVFSGEELELLDSAQWKLYQDVMLENFRNLLSVGGRIQTELETFPEAGPHEELSWQQIWEQIASDSTFSQD
modifications: Marmota monax
B2: DOMAIN_8853 (protein, listed as Mesocricetus auratus)
chain: ARVAVMFSDVSIAFSQEEWEYLDLAQRDLYKDVMMENYRNVASLAGCFISKPDVISLLEQGKEPWKVVRKRRRNPDLETKD
B3: DOMAIN_8503 (protein, listed as Mus caroli)
chain: SQCLLTFGDVSVDFSQEEWECLDSAQRALYIDVMLENYSNLVSVENYSTCDTVHQHVNTGKESCQRNNLGEMLRNPSHDAL
B4: DOMAIN_9114 (protein, listed as Peromyscus maniculatus)
chain: PQSLLSFGDVAVDFSQEEWEYLDYDQRTLYMDVMLENYSNLVFVENHRIYGKYEKDLDQGTKHIAHEDVIIQEKSYKCNEL
B5: DOMAIN_9042 (protein, listed as Mus caroli)
chain: DLVTYDDVHVNFTQEEWALLDPSQKNLYKDVMLETYRNLSAIGYIWEVHTSEDHFQTSRSHGRHERSCTAVQPSEFIQCGK
B6: DOMAIN_8502 (protein, listed as Cricetulus griseus)
chain: CNSWISPSDVAINFSKEEWECLHPSQKDLYRDVMLENYSNLVSVGLSESKPELVTCLEENKEPWMVNIDEAEGLGQGVFCY
B7: DOMAIN_8844 (protein, listed as Peromyscus maniculatus)
chain: ARVSVMFSDVSIAFSREEWEYLDLSQRDLYKDVMMENYRNVASLGYFISKPDVISLLEQGKEPWKVVRRRRRNPDLETKDE
B8: DOMAIN_8689 (protein, listed as Mus musculus)
chain: LLHGCCSLETHSIRDKNAVTYGDVHVNFTQEEWALLDPSQKKLYKDVMLETYRNLNAIGFNWDDKNTEEHCPSTRRWRRYP
B9: DOMAIN_8289 (protein, listed as Peromyscus maniculatus)
chain: DAVTYEDVHVNFTHEEWALLDPSQKSLYKDVMLETYWNLTSIGYKWEDHNFEENCQSSRRHGRHINCPSGYKPCEHEEYGK
B10: DOMAIN_8789 (protein)
chain: FQELVSFNDVTVGFTQEEWQHLDPSQRSLYREVMLENYSHLVSVGYCVTKPEVIFRLEQGEEPWISEAEFPSQSFPELWKA
modifications: Marmota monax
B11: DOMAIN_8467 (protein, listed as Mesocricetus auratus)
chain: DAVTYQDLHITFTQEEWALLDSSQRNLYKDVMLETYMNLNAIGYKWEDNDIEQHCRSPQRHGRHERSPTREKPSAYMQCDK
B12: DOMAIN_8353 (protein, listed as Peromyscus maniculatus)
chain: SKAPVTFGDLAIYFSQEEWEWLSPIQKDLYEDVMLENYQNLVLLGLACRRPNIITLLEKGKAPWVVEPSRRRRGPESGSKC
B13: DOMAIN_8418 (protein, listed as Cricetulus griseus)
chain: SKASVTFGDLAIYFSREEWEWLSPIQKDLYEDVMLENYQTLVSLGLVCRRPNIITLLEKGKAPWMVEPSRRRRGPESGSKR
B14: DOMAIN_8850 (protein, listed as Peromyscus maniculatus)
chain: FKELVVFRDVAVEFCREEWECLDPRQRSLYRDVMLETYGNFVSLGLAISKPSVISLLEQGKEPWMVEQAGWYPDLLSVNET
B15: DOMAIN_8549 (protein, listed as Mus caroli)
chain: VCGSVTFKDVAVDFSQEEWACLDATQKVLYRDMMLETYSNLVAVVGRCISKPDLIVLLEQEKEPWMAVKEETDRPSPDLES
B16: DOMAIN_8793 (protein, listed as Mus caroli)
chain: VCGSVTFKDVAVDFSQEEWACLDATQKVLYRDMMLETYSNLVAVVGHCISKPDLIVLLEQEKEPWMTVKEETDRPSPDLEA
B17: DOMAIN_8816 (protein, listed as Peromyscus maniculatus)
chain: SGSQDAVTYEDVHVNFTPEEWALLDSSQKSLYKEVMLETYRNLTSIGYKWEDLNIEEHCQSSRRLKRYIIGHSRYKPCDRE
B18: DOMAIN_8370 (protein, listed as Cavia porcellus)
chain: QEIPVSFKDVVVGFTQEEWHWLNPVQRALYRDVMLETYSNLVSVGYEGTKPDVILRLEQEEAPWVCEAPCPGCCCWEDIWQ
B19: DOMAIN_8547 (protein, listed as Mus caroli)
chain: DKALMAFHDVAVAFSQMEWELLSPAQRILYREVMLENYSHLVSLGIAFSKPKLITQLEQGAEPWRDGSGCFLDLCPAEPRT
B20: DOMAIN_8412 (protein, listed as Mus musculus)
chain: QCLLTFKDVFLDFSSEEWECLNFAQRTLYMDVMLENYNNLLFVENHCICGNYEKEKVLEQDTQHIVNEHGHNRKKSSKCNE
B21: DOMAIN_9012 (protein, listed as Mus musculus)
chain: MVLVSFEDVAVDFTWEEWQALDAAQRTLYRDVMLETYSSLVSLGHCMAKPELIFNLEQGLGPRSTAGASVWNLSGRTEDS
B22: DOMAIN_8839 (protein, listed as Peromyscus maniculatus)
chain: RPRALKFADVAVYFSPEEWGCLRPAQRLLYREVMRETYGLLGALGCAGPTPALISWLERNTDDWEPAALDPQEYRRWATFQ
B23: DOMAIN_8301 (protein, listed as Mesocricetus auratus)
chain: MNTVTYDDVHVNFTWEEWTLLDPSQKNLYKDVMLETYRNLTAVGYSWEDHNVEEHCQSYRRHSRLERSHTGEKSSVHTQCV
B24: DOMAIN_8235 (protein, listed as Mus caroli)
chain: SQVSVTFEDVAVLFTRDEWKKLVPSQRSLYREVMLENYSNLASLAGFPFTKPKVISLLQQGEDPWKVEEEGPGGFSLGLKC
B25: DOMAIN_8936 (protein, listed as Cricetulus griseus)
chain: GNQFSFQSLLTFKDVAINFSKEEWECLHTSQRNLYRDVMLENYSNLVSVGLSESKPELVTCLEQNKEPWMVNIDEAEGLGQ
B26: DOMAIN_8308 (protein)
chain: SKAPVTFGDLAIYFSQEEWEWLSPIQKDLYEDVMLENYTNLVSLGLSSRRPNVIALLEKGKAPWMVEPPRRRQGPDSRSKC
modifications: Marmota monax
B27: DOMAIN_8886 (protein, listed as Cricetulus griseus)
chain: LINAVTYNDVHINFTQEEWALLDPSQKSLYKDVMLETYRNLTAIGYSCEDHNIEEHCQSSTRHRRYERRHSREKPSEYSQC
B28: DOMAIN_8303 (protein, listed as Ictidomys tridecemlineatus)
chain: SQEAVTFEDVAVYFTQNQWASLEPAQKALYQEVMLENYANITSLAALPFPKPDLIFQLELGEAPWVPDSWRPVGEEALGGR
B29: DOMAIN_8546 (protein, listed as Mus musculus)
chain: KPGTVSFADVAVYFSPEEWRYLRPAQRALYREVMRETYGLLTYLDVGCAKPALISWVEEESEVWGPGAQDPEVAMCRTEVH
B30: DOMAIN_8899 (protein, listed as Mesocricetus auratus)
chain: SETGNAVTYDDVHISFTSKEWALLDPSQKSLYKDVMLEIYSHLTAIGYKWEAHDSEDHGQRFRRQRRHKRSHTEVKTYKCS
B31: DOMAIN_8489 (protein, listed as Mus caroli)
chain: AHSMVMFRDVTVDFSQEEWECLSSYERDLYRDVMLENYSHLVSLAGCSISKPDVITLLEQGKEPWMIVRAEKRRWSRDLES
B32: DOMAIN_8830 (protein, listed as Cavia porcellus)
chain: LRDLVTFEDVAVDFTQEEWALLDASQRSLYREVMLENCRNLASLGCHVDKPSLISQLEQEDQAMTEERGNLPGTCPDLETV
B33: DOMAIN_8931 (protein, listed as Cricetulus griseus)
chain: DSVTFEDVAISFTVEEWALLDPSQKKLHRDVMEETFRNLAAIGRTQDDQHIDNDHRYSRRNQRNEVVERLLERNKSSECKE
B34: DOMAIN_8989 (protein)
chain: PKVPVSFEDVAMYFTKTEWKLLDLKQRILYKQVMLENYGHLVSLGFAFSKPRLVSQLERGEGPWVADSLRGQAEAESHAGE
modifications: Marmota monax
B35: DOMAIN_8688 (protein, listed as Mus musculus)
chain: MDAVTYEDVHVNFSQEEWALLDPSQKSLYKDVMLETYWNLTCIGYKWEDHNIEDQHQSSGRHGRCINCPSAYGKKQCTNLF
B36: DOMAIN_8305 (protein, listed as Ictidomys tridecemlineatus)
chain: SQGPVLFEDVSVDFTQKEWQLLDPAQRRLYRDVMLENYRHLESLGHCVTKPELIRRLEQGEEPWILKREVPSHSHAEVQRA

What follows are molecules tested on HBEGF locus. Conditions: high-throughput screen of dXR repression of the HBEGF gene; change in abundance of each domain in the library before and after diphtheria toxin selection.
Format: cell-based, human

Going from B1 to B2, the “Log2 (fold change)” value rises from 2.7436 to 4.6199.

Going from B3 to B4, the “Log2 (fold change)” value falls from 2.8193 to 2.2058.

Same assay, conditions: repressor domain in dXR, repression of the HBEGF gene; abundance of domain in library after vs before diphtheria toxin selection

First: B5
Second: B6
The “Log2 (fold change)” value of the first is higher: 2.5894 for the first, 2.1429 for the second.

Compared with B7, B8 is lower in “Log2 (fold change)” value: 4.1629 for the first, 2.8548 for the second.

B9 and B10 are within 0.2 log units of each other in “Log2 (fold change)” value: 3.3026 for the first, 3.1756 for the second.

Going from B11 to B12, the “Log2 (fold change)” value falls from 3.8156 to 2.7989.

Compared with B13, B14 is higher in “Log2 (fold change)” value: 2.4014 for the first, 2.695 for the second.

B15 and B16 are within 0.2 log units of each other in “Log2 (fold change)” value: 2.8508 for the first, 2.6774 for the second.

Compared with B17, B18 is higher in “Log2 (fold change)” value: 2.4156 for the first, 3.5737 for the second.

First: B19
Second: B20
The “Log2 (fold change)” value of the first is higher: 3.3997 for the first, 2.4486 for the second.

Compared with B21, B22 is higher in “Log2 (fold change)” value: 2.3905 for the first, 3.0637 for the second.

Going from B23 to B24, the “Log2 (fold change)” value falls from 3.1084 to 2.8965.

Going from B25 to B26, the “Log2 (fold change)” value falls from 4.3486 to 2.6564.

B27 and B28 are within 0.2 log units of each other in “Log2 (fold change)” value: 3.5727 for the first, 3.6843 for the second.

First: B29
Second: B30
The “Log2 (fold change)” value of the first is lower: 2.9439 for the first, 3.2182 for the second.

First: B31
Second: B32
The “Log2 (fold change)” value of the first is lower: 2.8336 for the first, 3.0644 for the second.

First: B33
Second: B34
The “Log2 (fold change)” value of the first is higher: 2.9497 for the first, 2.2309 for the second.

B35 and B36 are within 0.2 log units of each other in “Log2 (fold change)” value: 2.4409 for the first, 2.5554 for the second.
